Data from the supplement of paper PMC11417369.
The list shows a part of the results.

What follows are sequences tested on PfSIP2 AP2 domain 1 (GST-tagged) (assay: gcPBM binding intensity (ln(normalized median fluorescence intensity)); higher = stronger DNA binding).
In short: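 After 1 h on an Agilent 4 × 180k array of primer-extended double-stranded 36-bp intergenic genomic probes and negative controls, bound GST-tagged P. falciparum DNA-binding domains were detected with Alexa488 anti-GST antibody and scanned at 488 nm. The domains had been expressed in E. coli, and binding took place in 1× PBS with 1% milk, 0.2 mg/ml BSA, 0.5% salmon testes DNA and 0.03% Triton X-100. Binding intensity is the highest Masliner-normalised natural-log median intensity across replicate spots of either probe orientation.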

Sequence	gcPBM binding intensity (ln)
TATTTTTATTTATAACGTACGAAAAATGTATATAAT [XGTACX_site703]	7.53
GGTGTATGTTAAAGGAGTACATATATATATATATAT [XGTACX_site7727]	9.25
CATACACATTTCATATGTACATAGATTGAAGGGAAG [XGTACX_site116]	7.21
TTTTATATATAATTCACACAAAAAAGATACATAAGA [CACACA_site5332]	7.15
TAAGCAAAAATAATTACACACAAATTTATAAAAAAT [CACACA_site3377]	6.87
ATAAAAATATAATTGAGTACATATGAATAGTCCTAT [XGTACX_site6281]	7.04
ATTTTGTTTTTTTTTGCACACCATAAGGAGTGTAGG [CACACA_site1414]	7.4
ACAACACATATTCATCGTACATGTATTAGGAAGACA [XGTACX_site1859]	7.1
TATATAAAAATATGTTGTACGCATTTATAAATATAT [XGTACX_site3758]	7.32
ATTTTTTTTTTTTTTTTTTTTTTTTTTGAATTCACA [CACACA_negctrl_site982]	6.82
AATAGTTCTTGAACGTGTACATAAAATATAATTTAC [XGTACX_site11]	6.99
TTCTATTTTTTAAAAGTGCATATTATAAATATATAT	9.04
GAATAATCCAAACACACACACACACCCGAATAAATA [CACACA_site482]	7.03
GAAATCTAAATAGAAACACACATATATAAATAAATA [CACACA_site7762]	6.78
TAGTATTTATATGTTATATATATAAAATAATACAGT [XGTACX_negctrl_site571]	7.11
ATATCTAATAAAAATACACACACATATGATTTGTGA [CACACA_site8558]	6.72
TATATAGAATTATATGCATGTTCAAAAAAATACAAC [TGCATGCA_site431]	7.3
ATATAAATATATATATGTACATAATATATTATGTTT [XGTACX_site2806]	7.18
AATTTAACCACTAAAAGTACACACATATATACATAT [XGTACX_site8352]	7.19
GGACACCTTCAAAACACACATACAAATAAATAGAAA [CACACA_site3305]	7.22
AGGATAATATACAAAAGTACATAAAACTAAAAAAAC [XGTACX_site605]	7.23
AACATATATTTTGAAACACACACATATATAATATAC [CACACA_site8301]	7.11

Sequence	gcPBM binding intensity (ln)
AAAGAAAGAAAGAATACACACACACCGATATATATA [CACACA_site9246]	7.52
AATGTGTATATATATACACACACATATATATATTTT [CACACA_site8596]	7.04
TCCTTTTTACTACTAGTGCATTATTTACAAGGTCCG [GTGCAC_site9441]	9.21
ATATATATAAAATATTATATTAAAAAAAATAAAATA [GTGCAC_negctrl_site87]	7.06
TAGTTTTTTATATATTGTACTTAGAATATATTATAT [XGTACX_site3662]	6.94
ACAAAGTTATAATTCTTGCACTTTAAGGTTCATTTA	7.2
CGTGAATATATGATATGTACTTATAAAAATTTGTGC [XGTACX_site5480]	7.21
ATAAATATCTAGGGTTCACACATTATATATCTGTAT [CACACA_site5702]	6.77
GGTATACACAAGTATACACACATATATATATATATA [CACACA_site9063]	9.58
TTTTCCTCTTAAAATATACACACTGATTTAAGAAAA [CACACA_site3301]	7.05
TTTTTTTTTTTTTTTTTTTTTTTTTTGTTCAGGCCT [GTGCAC_negctrl_site143]	6.78
ACGTAATAAAATAGTTGTACAACTTTTTATAATATA [XGTACX_site4393]	7.53
TCATAAATATGAAAAAGTACAAAGGTAGATTTTGAA [XGTACX_site4535]	6.82
TATATATATATTATATGTACGTATGTATGTATATAT [XGTACX_site6451]	8.3
AAACGATTAATGTGTACACACATAGTTATAAACCTA [CACACA_site2110]	7.41
TTTTTCTTTTTTTCTTTTTTTATAAAACTTAATTGT [CACACA_negctrl_site384]	6.74
AAAAAAAAAAAAAAATATATATATATATACATACAT [CACACA_negctrl_site317]	7.53
TATTAATTATATTTATGTACATAATCATATTATTAT [XGTACX_site7938]	6.88
TTCATTTTTTGCTTTCAACACACATACAATATATAT [CACACA_site9369]	7.26
AGTAACAAAAGAAAAAAATATGCAAACATATATATA [XGTACX_negctrl_site468]	6.99
AGAAATATATATATATATATATATATATATATATAT [TGCATGCA_negctrl_site375]	9.39
TTTACAACATCAAAATGTACGCATTATTATTATTAA [XGTACX_site3017]	6.87

Sequence	gcPBM binding intensity (ln)
AAAAAAAAAAAACACACACACACACCCACCCATACA [CACACA_site2859]	7.08
TATTTAAAAAATAATACACACATAATATAACAAAAT [CACACA_site3174]	7.19
TGTGTATAAATATACACACACATATAAATATTTTAA [CACACA_site7005]	6.79
ACATATAATATAAATTGTACATATAAATATATTATT [XGTACX_site4268]	7.02
TCATATATTTTATACATACACACATATATATATTTT [CACACA_site3941]	7.15
ACGTTATACACAGTACGTACATAACTATCTAAATGT [XGTACX_site5068]	7.18
TGGAGGTCAGTTCACAGTACCCAGGAAATCTGCGGA [XGTACX_site2556]	6.18
ATGCATAATATACTCTTACACACCATTTCTATATAC [CACACA_site1461]	7.07
TATAACATAGGACACACACACATACATACACAAAAA [CACACA_site5062]	7.39
CGAACACAAACACAAACACACATCATATATATATAT [CACACA_site4857]	9.34
ATTTTGGAAATAATATGTACATATACATAATATATA [XGTACX_site4177]	6.86
AATATACAAAAAAAAAAAAAAAAAAAAAAGATGGAA [TGCATGCA_negctrl_site550]	6.92
TTTATTATATTTTTTTGTACATATTGATGTATATAA [XGTACX_site6527]	7.04
GCAAATCTTATATGAAGTACATATCTTATAAATAAA [XGTACX_site6903]	7.12
AGCAAAATGAAATAAATTGGAAAATATTACTGAACG [CACACA_negctrl_site1433]	6.91
AACAAAGGATTTATATATACATACATACATACATAA [GTGCAC_negctrl_site469]	6.96
ATAAAAAAAAAAAGAAGTACATGTATTAAAATTTAT [XGTACX_site3927]	6.96
TGAATTTACAAAATCATGCACTTAATTACAGAATAA	8.01
GGTACATACAGACACACACACAAAAAAAAAAAAATA [CACACA_site6844]	7.17
AAAAGTCTTCAAATTTGTACATATATATATATATAT [XGTACX_site3404]	9.58
TTAATATTAATTATATGTACATATAATATATATATA [XGTACX_site1757]	8.51
ATCTTTTCATATTGCTGTACAAATTATTTTCATTCG [XGTACX_site492]	7.4

Sequence	gcPBM binding intensity (ln)
GAGAAATGGAGACACACACACATATTATATATATAT [CACACA_site1532]	8.66
TGTATAAAATTCCATTGTACATATTATTTTACGACA [XGTACX_site7764]	6.97
ATGTTAAACAAATCTATACACACGTATATGACAAAA [CACACA_site1783]	7.01
GTATACATGCAAATTTTTATTTACAACCCCAAAAAG [XGTACX_negctrl_site255]	7.27
TTTTCATAATATACATGTACATATATAAATTATTAA [XGTACX_site5206]	7.1
TTTTTTTCACAAAATACACACAATATATTTTATATC [CACACA_site1138]	6.83
TATTATAATATGCCTTGTACATATAACAAATTTATT [XGTACX_site108]	7.07
ATGAACAAGTGGCACACACACATTATAACTAATTTA [CACACA_site5731]	7.19
TTTATTTATTACTAAAGTACTAAATCATATTATTAT [XGTACX_site2574]	6.7
TTCTTTTTTTTTATCACACATATTACAATCTAGTGC [CACACA_site4697]	7.31
AAAATAATATTTCCTTGTACACATATGTATTTGTTC [XGTACX_site4430]	7.17
TTTTGGATTGAGGACCTTTTTATAGAATTATGTTTT [TGCATGCA_negctrl_site544]	6.75
ATATATAATTTTTACACACGCAATAAATATATATAT [CACACA_site4283]	8.4
ATGTTATAAGATTTATGTACACACATATACACACCT [XGTACX_site1316]	7.24
GTTTCCTTAATATTCACACACATATATATAATATAT [CACACA_site1856]	7.55
TTAACATAAATATATACACACCAATGATGGCATTTA [CACACA_site4952]	6.85
TATATATAATATATATGTACGTATATATATAATATA [XGTACX_site8383]	7.37
AATAAAGCAATAAATACACACATATTTATATTTATA [CACACA_site7390]	6.93
AAGGGAAAATAATAAAAGAAAAAGAAAAAAAAAAAA [CACACA_negctrl_site1518]	6.74
TAATGGAGAAAAAAAAAACACACGGTACATTCAAAG [CACACA_site3117]	7
TATATATATATATATTGTACTTTATATGTTCTTATA [XGTACX_site7545]	9.49
AAATATTACATTTGTTAAATAATATGTTATACATAA [XGTACX_negctrl_site484]	6.96
